# Inconclusive means that the source gave no clear call. Such entries were picked first, then a sample of the others. For some assays here: Potencies beside an inconclusive call are fits to weak or partial responses and may not hold up. The source made the active and inactive calls. Calls follow the shape of the dose curve; as a rule, active = well fitted curve in the direction sought with a large enough effect; inconclusive = small, poorly fitted or top-dose-only effect, or another doubt; inactive = no such curve, though single readings can be large; an effect the other way counts as inactive or inconclusive.
# Assays:
# [1] = Confirmatory screen GU Rhodamine qHTS for Zika virus inhibitors qHTS (AID 1347157); also: nearly all actives have a fitted effect of over 70% in size; also: potency is read from the fitted curve at half-maximal effect
# Summary of the method: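 Noncovalent NS2B hydrophilic domain/NS3 protease complex (25 nM final) in 10 mM Tris-HCl pH 8.0, 0.01% Tween 20, preincubated 15 min with compounds (up to 114 microM), then 1.5 microM Rhodamine110 substrate. Fluorescence change over 15 min fitted to 4-parameter Hill.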
# [2] = tested on: Zika virus NS2B-NS3 protease (linked); assay: 384 well plate NINDS AMC confirmatory qHTS for Zika virus inhibitors (AID 1347163); also: potency is read from the fitted curve at half-maximal effect; nearly all actives have a fitted effect of over 50% in size
# Summary of the method: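 Fluorescence at 355/460 nm was read after 25 minutes of cleavage of 30 microM Ac-VKTGKR-AMC at room temperature, in the dark. Before substrate addition, compounds (up to 1 mM final) sat ~15 minutes with 5, 30 or 60 nM linked protease. Signals were normalized to no-enzyme and no-inhibitor wells.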
# [3] = tested on: Zika virus NS2B-NS3 protease (linked construct); assay: 384 well plate NINDS Rhodamine confirmatory qHTS for Zika virus inhibitors (AID 1347164);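 also: fluorescence from protease cleavage of Ac-LKRR-rhodamine 110 substrate; potency is read from the fitted curve at half-maximal effect; nearly all actives have a fitted effect of over 65% in size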
# Summary of the method: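 Linked NS2B-NS3 protease (final 5, 30 or 60 nM) preincubated ~15 minutes with compounds, then 10 microM Ac-LKRR-Rhodamine 110 added. Fluorescence (485/538 nm) read after 25 minutes at room temperature, normalized to no-enzyme and no-inhibitor controls.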
# [4] = Confirmatory screen NINDS Rhodamine qHTS for Zika virus inhibitors (AID 1347161); also: nearly all actives have a fitted effect of over 60% in size; also: potency is read from the fitted curve at half-maximal effect
# Summary of the method: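 Kinetic fluorescence (Ex 480 nm, Em 540 nm) over 15 min with 1.5 microM Rhodamine110 peptide and 25 nM linked protease.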
# [5] = tested on: Zika virus NS2B-NS3 protease (unlinked complex); assay: Primary screen GU Rhodamine qHTS for Zika virus inhibitors: Unlinked NS2B-NS3 protease assay (AID 1347159); also: potency is read from the fitted curve at half-maximal effect; nearly all actives have a fitted effect of over 60% in size
# Summary of the method: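 Enzyme 25 nM in Tris-HCl pH 8.0 + 0.01% Tween 20; compounds up to 114 microM, 15 min RT dark; + Rhod110 substrate 1.5 microM; read t0 and 15 min; delta fluorescence → % inhibition → 4-parameter Hill fit.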
# [6] = tested on: Zika virus NS2B-NS3 protease (linked construct); assay: Primary screen NINDS Rhodamine qHTS for Zika virus inhibitors (AID 1347160); also: nearly all actives have a fitted effect of over 55% in size; also: potency is read from the fitted curve at half-maximal effect
# Summary of the method: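 Enzyme (25 nM, linked NS2B-NS3) was preincubated 15 min with compound in 10 mM Tris-HCl pH 8.0, 0.01% Tween 20. Rhodamine110 substrate (1.5 microM) was then added and fluorescence read at start and after 15 min.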
# [7] = Primary fluorescence-based thiol-reactive (MSTI) qHTS assay for identification of artifact compounds. (AID 1845221);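 also: potency is read from the fitted curve at half-maximal effect; thiol-reactive compounds lower the probe fluorescence signal; nearly all actives have a fitted effect of over 65% in size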
# Summary of the method: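 Reactivity toward the thiol probe MSTI (4 uM) is scored by fluorescence at Ex/Em 525/598 nm after 1 h at room temperature. Acetyl-MSTI and MSTI define the activity scale.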
# [8] = molecular target: Calcium and integrin-binding protein 1 (Homo sapiens) (UniProt Q99828); assay: Primary qHTS for Identification of Calcium Integrin Binding Protein 1 (CIB1) Competitor (AID 1508620);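 also: GST tagged CIB1 binding a fluorescein labelled alphaIIb integrin peptide tracer; top concentration of the series differs between compounds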
# Summary of the method: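 Fluorescence polarization competition: GST-tagged CIB1 (1 uM final) preincubated with compound 15 min at room temperature, then FITC-labelled alphaIIb peptide (100 nM final) added. After 15 min at room temperature, polarization read at Ex 480/Em 540.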
# [9] = Primary qHTS for inhibitors of nuclear receptor binding SET domain protein 2 (NSD2) in an isogenic RCH-ACV NSD2 p.E1099K mutant (9B) (AID 1645876); also: nearly all actives have a fitted effect of over 70% in size; also: potency is read from the fitted curve at half-maximal effect
# [10] = Primary qHTS for inhibitors of nuclear receptor binding SET domain protein 2 (NSD2) in an RCH-ACV wild type WT cells (2C) (AID 1645877); also: nearly all actives have a fitted effect of over 70% in size; also: potency is read from the fitted curve at half-maximal effect
# [11] = tested on: Nanoluciferase (engineered Oplophorus gracilirostris luciferase); assay: Primary Nanoluciferase (NLuc) qHTS assay for identification of artifact compounds. (AID 1845222); conditions: NLuc-conditioned medium, Nano-Glo luminescence, 5 min; also: potency is read from the fitted curve at half-maximal effect
# Summary of the method: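 Diluted conditioned medium from NLuc-expressing S16 cells treated with compounds for 15 min at room temperature, then Nano-Glo substrate added; luminescence read after 5 min. Percent inhibition versus no-enzyme and DMSO controls fitted to 4-parameter Hill equation.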
# [12] = Primary redox qHTS assay for identification of artifact compounds. (AID 1845223); also: potency is read from the fitted curve at half-maximal effect
# Summary of the method: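 Redox-cycling detection via DTT (250 uM final) oxidation coupled to Amplex Red (25 uM)/HRP (250 mU/mL) in HBSS. 15 min preincubation plus 30 min after DTT, room temperature. Ex/Em 525/598 nm; 4-parameter Hill fit against DMSO and 10 uM DA3003.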
# [13] = ZIKV-mCherry secondary qHTS for Zika virus inhibitors (AID 1347158); conditions: Vero cells, ZIKV-mCherry infection imaging, 48-72 h; series mostly up to 49.2 µM; also: potency is read from the fitted curve at half-maximal effect
# Summary of the method: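 Compounds were tested in Vero monkey kidney cells infected with recombinant mCherry-expressing Zika virus at MOI 1 for 48-72 h at 37 °C. Fixed cells were nuclear-stained and imaged, and infection rate was taken as the fraction of mCherry-positive cells.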
# [14] = Tertiary RLuc qRT-PCR qHTS assay for Zika virus inhibitors (AID 1347169); also: potency is read from the fitted curve at half-maximal effect; nearly all actives have a fitted effect of over 55% in size
# Summary of the method: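 Vero cells (1,000/well) infected with recombinant ZIKV-RLuc (Cambodian) at MOI 1-2 after compound addition, 48-72 hrs at 37 degrees C. Live-cell Renilla luciferase substrate added; luminescence read after 1-1.5 hrs.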
# Tags tell the direction and shape of the fitted curve.
# Chain of UniProt Q99828 (Q99828 whole entry, looked up): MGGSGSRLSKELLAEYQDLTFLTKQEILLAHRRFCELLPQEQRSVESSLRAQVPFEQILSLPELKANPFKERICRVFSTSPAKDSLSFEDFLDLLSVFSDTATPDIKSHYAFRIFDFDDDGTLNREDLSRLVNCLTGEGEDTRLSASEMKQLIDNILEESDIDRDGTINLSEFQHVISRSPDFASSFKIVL
structure (smiles),measurement,setting,value
CCCCc1nn2c(=O)cc(COC(=O)c3ccc(NC(=O)CCc4ccccc4)cc3)nc2s1,Potency,[1],"inconclusive: 89.1 µM [inhibitor, single point]"
same,Potency,[2],"inconclusive: 15.8 µM [inhibitor, full curve, poor fit]"
same,Potency,[3],active: 25.1 µM
COc1ccc(S(=O)(=O)c2c(O)c(C)cc(NS(=O)(=O)c3ccc(Cl)cc3)c2C(C)C)cc1,Potency,[1],inactive
same,Potency,[4],"inconclusive: 50.1 µM [inhibitor, partial curve]"
Cc1cc(=O)c2c(O)c3c(O)cc(O)c4c5c(O)cc(O)c6c(O)c7c(=O)cc(C)c8c1c2c(c34)c(c65)c78,Potency,[1],inactive
same,Potency,[4],inactive
CC[C@H](C)/C=C(C)/C=C/C(=O)Cc1cc(O)c(C)c(O)c1C=O,Potency,[5],"inconclusive: 12.6 µM [inhibitor, full curve]"
same,Potency,[6],"inconclusive: 28.2 µM [inhibitor, single point]"
same,Potency,[7],active: 14.7 µM
O=C1OC(c2ccc(O)cc2)C(O)=C1Cc1ccccc1 (stereo not given),Potency,[5],"inconclusive: 35.5 µM [inhibitor, partial curve]"
same,Potency,[6],"inconclusive: 39.8 µM [inhibitor, single point]"
same,Potency,[8],inactive
same,Potency,[9],"inconclusive: 29 µM [inhibitor, single point]"
same,Potency,[10],"inconclusive: 29 µM [inhibitor, single point]"
same,Potency,[7],"inconclusive: 7.52 µM [inhibitor, partial curve]"
same,Potency,[11],"inconclusive: 23.9 µM [inhibitor, partial curve]"
same,Potency,[12],"inconclusive: 42.3 µM [activator, partial curve, poor fit]"
COC(=O)C1=CO[C@@H](O[C@@H]2O[C@H](CO)[C@@H](O)[C@H](O)[C@H]2O)[C@H]2[C@@H]1CC(OC)O[C@@H]2C (stereo not given in full),Potency,[5],"inconclusive: 35.5 µM [inhibitor, single point]"
same,Potency,[6],inactive
same,Potency,[9],inactive
same,Potency,[7],active: 10.3 µM
CC/C=C\CCO[C@@H]1O[C@H](CO)[C@@H](O)[C@H](O)[C@H]1O,Potency,[5],"inconclusive: 50.1 µM [inhibitor, partial curve]"
same,Potency,[6],"inconclusive: 17.8 µM [inhibitor, partial curve, poor fit]"
same,Potency,[7],active: 5.97 µM
same,Potency,[12],inactive
O=C(O)c1ccc(-c2cccc(C(F)(F)F)c2)cc1,Potency,[13],inactive
same,Potency,[2],"inconclusive: 44.7 µM [inhibitor, full curve, poor fit]"
same,Potency,[3],"inconclusive: 562 µM [inhibitor, partial curve, poor fit]"
Cc1ccc2nc(NS(=O)(=O)c3ccc(Cl)cc3)c(Nc3ccc(C(=O)O)cc3)nc2c1,Potency,[13],"inconclusive: 17.8 µM [inhibitor, partial curve, poor fit]"
same,Potency,[14],"inconclusive: 31.6 µM [inhibitor, single point]"
CC1(C(=O)O)CCCC2(C)C3CC4C5CC3(CCC12)CC45C (stereo not given),Potency,[5],active: 10 µM
O=C(O)COc1ccc(-c2nccc3c2C(=O)N(Cc2cccc(C(F)(F)F)c2)CC(COc2ccc(OC(F)(F)F)cc2)O3)cc1 (stereo not given),Potency,[13],"inconclusive: 17.8 µM [inhibitor, partial curve]"
same,Potency,[2],"inconclusive: 251 µM [inhibitor, partial curve, poor fit]"
CC1CCC2C(C)(C)[C@H](O)CC[C@]2(C)C12Cc1c(O)cc3c(c1O2)CN(C(CCC(=O)O)C(=O)O)C3=O (stereo not given in full),Potency,[5],"inconclusive: 7.94 µM [inhibitor, full curve]"
same,Potency,[6],"inconclusive: 10 µM [inhibitor, single point]"
same,Potency,[10],inactive
same,Potency,[12],"inconclusive: 13 µM [activator, partial curve, poor fit]"
Cc1oc2c(cc(NS(=O)(=O)c3ccc(Br)cc3)c3ccccc32)c1C(=O)OCc1ccccc1,Potency,[13],inactive
same,Potency,[2],"inconclusive: 141 µM [inhibitor, full curve, poor fit]"
same,Potency,[14],"inconclusive: 0.0198 µM [inhibitor, partial curve, poor fit]"
CC/C=C\C(O)C(O)C1=C(C)C(=O)C2(O1)C(=O)NC(OC)(C(=O)c1ccccc1)C2O (stereo not given),Potency,[5],"inconclusive: 25.1 µM [inhibitor, partial curve]"
same,Potency,[6],inactive
same,Potency,[9],inactive
same,Potency,[10],inactive
same,Potency,[7],active: 4.62 µM
same,Potency,[12],"inconclusive: 18.4 µM [activator, single point]"
Clc1ccc(-c2nn3c(COc4cccc(OCc5nnc6sc(-c7ccc(Cl)cc7)nn56)c4)nnc3s2)cc1,Potency,[13],"inconclusive: 11.2 µM [inhibitor, partial curve, poor fit]"
same,Potency,[2],active: 12.6 µM
same,Potency,[3],"inconclusive: 35.5 µM [inhibitor, full curve, poor fit]"

# — PubChem BioAssay (NCATS)
